# Experimental data as given in the supplement of paper PMC8728848.
# The list shows a part of the results.
# B1: Gal 7 (Homo sapiens) (protein)
# chain: MSNVPHKSSLPEGIRPGTVLRIRGLVPPNASRFHVNLLCGEEGGSDAALHFNPRLDTSEVVFNSKEGGSWGREERGPGVPFGRGQPFEVLIIASDDGFKAVVGDAQYHHFRHRLPLARVRLVEVGGDVQLDSVRIF
# Legend:
# Experiment in all cases: glycan array binding signal (z-score within array); higher = stronger binding
# Conditions in all cases: glycan notation: IUPAC condensed, linker removed
# [1] = target: Neu5Ac(a2-3)Gal(b1-4)GlcNAc(b1-2)Man(a1-3)[Neu5Ac(a2-3)Gal(b1-4)GlcNAc(b1-2)Man(a1-6)]Man(b1-4)GlcNAc(b1-4)GlcNAc
# Procedure, shortened: (§1)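 Glycan array data came from 3228 arrays in the Consortium for Functional Glycomics database, and only arrays with an available protein sequence were kept. Glycan names were put into IUPAC-condensed notation, and columns mapping to the same glycan were averaged. The binding signal is a within-array Z-score, averaged across arrays of one protein sequence run at different concentrations or buffers and across linkers. A negative Z-score can be read as non-binding.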
# [2] = target: Neu5Ac(a2-3)Gal(b1-4)GlcNAc(b1-2)Man(a1-3)[Neu5Ac(a2-3)Gal(b1-4)GlcNAc(b1-2)Man(a1-6)]Man(b1-4)GlcNAc(b1-4)[Fuc(a1-6)]GlcNAc
# Procedure, shortened: as §1
# [3] = target: Neu5Ac(a2-3)Gal(b1-4)GlcNAc(b1-2)Man(a1-3)[Neu5Ac(a2-6)Gal(b1-4)GlcNAc(b1-2)Man(a1-6)]Man(b1-4)GlcNAc(b1-4)GlcNAc
# Procedure, shortened: as §1
# [4] = target: Neu5Ac(a2-3)Gal(b1-4)GlcNAc(b1-2)[Neu5Ac(a2-3)Gal(b1-4)GlcNAc(b1-4)]Man(a1-3)[GlcNAc(b1-4)][Neu5Ac(a2-3)Gal(b1-4)GlcNAc(b1-2)[Neu5Ac(a2-3)Gal(b1-4)GlcNAc(b1-6)]Man(a1-6)]Man(b1-4)GlcNAc(b1-4)GlcNAc
# Procedure, shortened: as §1
# [5] = target: Neu5Ac(a2-3)Gal(b1-4)GlcNAc(b1-2)[Neu5Ac(a2-3)Gal(b1-4)GlcNAc(b1-4)]Man(a1-3)[GlcNAc(b1-4)][Neu5Ac(a2-3)Gal(b1-4)GlcNAc(b1-4)Man(a1-6)]Man(b1-4)GlcNAc(b1-4)GlcNAc
# Procedure, shortened: as §1
# [6] = target: Neu5Ac(a2-3)Gal(b1-4)GlcNAc(b1-2)[Neu5Ac(a2-3)Gal(b1-4)GlcNAc(b1-6)]Man(a1-6)[Neu5Ac(a2-3)Gal(b1-4)GlcNAc(b1-2)Man(a1-3)]Man(b1-4)GlcNAc(b1-4)GlcNAc
# Procedure, shortened: as §1
# [7] = target: Neu5Ac(a2-3)Gal(b1-4)GlcNAc(b1-2)[Neu5Ac(a2-3)Gal(b1-4)GlcNAc(b1-6)]Man(a1-6)[Neu5Ac(a2-3)Gal(b1-4)GlcNAc(b1-2)Man(a1-3)][GlcNAc(b1-4)]Man(b1-4)GlcNAc(b1-4)GlcNAc
# Procedure, shortened: as §1
# [8] = target: Neu5Ac(a2-3)Gal(b1-4)GlcNAc(b1-3)Gal
# Procedure, shortened: as §1
# [9] = target: Neu5Ac(a2-3)Gal(b1-4)GlcNAc(b1-3)Gal(b1-3)GlcNAc
# Procedure, shortened: as §1
# [10] = target: Neu5Ac(a2-3)Gal(b1-4)GlcNAc(b1-3)Gal(b1-4)GlcNAc
# Procedure, shortened: as §1
# [11] = target: Neu5Ac(a2-3)Gal(b1-4)GlcNAc(b1-3)Gal(b1-4)GlcNAc(b1-2)Man(a1-3)[Neu5Ac(a2-3)Gal(b1-4)GlcNAc(b1-3)Gal(b1-4)GlcNAc(b1-2)Man(a1-6)]Man(b1-4)GlcNAc(b1-4)GlcNAc
# Procedure, shortened: as §1
# [12] = target: Neu5Ac(a2-3)Gal(b1-4)GlcNAc(b1-3)Gal(b1-4)GlcNAc(b1-3)Gal(b1-4)GlcNAc
# Procedure, shortened: as §1
# [13] = target: Neu5Ac(a2-3)Gal(b1-4)GlcNAc(b1-3)Gal(b1-4)GlcNAc(b1-3)Gal(b1-4)GlcNAc(b1-2)Man(a1-3)[Neu5Ac(a2-3)Gal(b1-4)GlcNAc(b1-3)Gal(b1-4)GlcNAc(b1-3)Gal(b1-4)GlcNAc(b1-2)Man(a1-6)]GalNAc
# Procedure, shortened: as §1
# [14] = target: Neu5Ac(a2-3)Gal(b1-4)GlcNAc(b1-3)Gal(b1-4)GlcNAc(b1-3)GalNAc
# Procedure, shortened: as §1
# [15] = target: Neu5Ac(a2-3)Gal(b1-4)GlcNAc(b1-3)Gal(b1-4)GlcNAc(b1-3)[Neu5Ac(a2-3)Gal(b1-4)GlcNAc(b1-3)Gal(b1-4)GlcNAc(b1-6)]GalNAc
# Procedure, shortened: as §1
# [16] = target: Neu5Ac(a2-3)Gal(b1-4)GlcNAc(b1-3)Gal(b1-4)GlcNAc(b1-6)[Gal(b1-3)]GalNAc
# Procedure, shortened: as §1
# [17] = target: Neu5Ac(a2-3)Gal(b1-4)GlcNAc(b1-3)Gal(b1-4)[Fuc(a1-3)]GlcNAc
# Procedure, shortened: as §1
# [18] = target: Neu5Ac(a2-3)Gal(b1-4)GlcNAc(b1-3)GalNAc
# Procedure, shortened: as §1
# [19] = target: Neu5Ac(a2-3)Gal(b1-4)GlcNAc(b1-3)[Neu5Ac(a2-3)Gal(b1-4)GlcNAc(b1-6)]GalNAc
# Procedure, shortened: as §1
# [20] = target: Neu5Ac(a2-3)Gal(b1-4)GlcNAc(b1-6)GalNAc
# Procedure, shortened: as §1
# [21] = target: Neu5Ac(a2-3)Gal(b1-4)GlcNAc(b1-6)[Gal(b1-3)]GalNAc
# Procedure, shortened: as §1
# [22] = target: Neu5Ac(a2-3)Gal(b1-4)GlcNAc(b1-6)[Neu5Ac(a2-3)Gal(b1-3)]GalNAc
# Procedure, shortened: as §1
# [23] = target: Neu5Ac(a2-3)Gal(b1-4)GlcNAc6S
# Procedure, shortened: as §1
# [24] = target: Neu5Ac(a2-3)Gal(b1-4)[Fuc(a1-3)]GlcNAc
# Procedure, shortened: as §1
# [25] = target: Neu5Ac(a2-3)Gal(b1-4)[Fuc(a1-3)]GlcNAc(b1-2)Man
# Procedure, shortened: as §1
# [26] = target: Neu5Ac(a2-3)Gal(b1-4)[Fuc(a1-3)]GlcNAc(b1-3)Gal
# Procedure, shortened: as §1
# [27] = target: Neu5Ac(a2-3)Gal(b1-4)[Fuc(a1-3)]GlcNAc(b1-3)Gal(b1-4)GlcNAc
# Procedure, shortened: as §1
# [28] = target: Neu5Ac(a2-3)Gal(b1-4)[Fuc(a1-3)]GlcNAc(b1-3)Gal(b1-4)[Fuc(a1-3)]GlcNAc(b1-3)Gal(b1-4)[Fuc(a1-3)]GlcNAc
# Procedure, shortened: as §1
binder,measurement,setting,value
B1,glycan array binding signal (z-score),[1],-0.267
same,glycan array binding signal (z-score),[2],0.214
same,glycan array binding signal (z-score),[3],-0.302
same,glycan array binding signal (z-score),[4],-0.271
same,glycan array binding signal (z-score),[5],-0.258
same,glycan array binding signal (z-score),[6],0.256
same,glycan array binding signal (z-score),[7],-0.245
same,glycan array binding signal (z-score),[8],-0.321
same,glycan array binding signal (z-score),[9],-0.232
same,glycan array binding signal (z-score),[10],0.054
same,glycan array binding signal (z-score),[11],-0.153
same,glycan array binding signal (z-score),[12],0.817
same,glycan array binding signal (z-score),[13],2.74
same,glycan array binding signal (z-score),[14],-0.259
same,glycan array binding signal (z-score),[15],0.006
same,glycan array binding signal (z-score),[16],-0.262
same,glycan array binding signal (z-score),[17],-0.309
same,glycan array binding signal (z-score),[18],-0.246
same,glycan array binding signal (z-score),[19],-0.216
same,glycan array binding signal (z-score),[20],-0.17
same,glycan array binding signal (z-score),[21],-0.217
same,glycan array binding signal (z-score),[22],-0.273
same,glycan array binding signal (z-score),[23],0.277
same,glycan array binding signal (z-score),[24],-0.305
same,glycan array binding signal (z-score),[25],-0.293
same,glycan array binding signal (z-score),[26],-0.331
same,glycan array binding signal (z-score),[27],-0.11
same,glycan array binding signal (z-score),[28],-0.261
